This sample is rich in variants without activity.
B1: TPR 5TU (parent)
chain: GGAUCUUCUCGAUCUAACAAAAAAGACAAAUCUGCCACAAAGCUUGAGAGCAUCUUCGGAUGCAGAGGCGGCAGCCUUCGGUGGCGCGAUAGCGCCAACGUUCUCAACUAUGACACGCAAAACGCGUGCUCCGUUGAAUGGAGUUUAUCAUG

Variants of: B1
Assay: polymerase ribozyme fitness, log enrichment relative to wild type (log ratio); higher = more active; in vitro selection for triplet polymerase activity
Method in brief: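 PCR was used to build mutant libraries for each subunit of a heterodimeric triplet polymerase ribozyme, which were then transcribed. A single in vitro selection round, in triplicate, used a frozen incubation at −7 °C and recovered extended constructs by gel excision, streptavidin beads and RT-PCR. Fitness is the logarithm of genotype enrichment relative to wild-type enrichment, averaged over replicates with inverse-variance weights. The logarithm is base 2, and after Illumina sequencing only genotypes with ≥10 input reads and ≥1 read per output were kept.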

Variant	polymerase ribozyme fitness (log ratio)
A24G C69U C87G U134A	≤ -4.2
A24G C75A A113U	≤ -4.2
A24G C76U A89U G92A G141C	≤ -4.2
A24G C85U C114U G124A U139G U148C	≤ -4.2
A24G C87G C114A G140U G141U	≤ -4.2
A24G C99U	-3.56
A24G C105A U144G	≤ -4.2
A24G C108U U148G	≤ -4.2
A24G C116G	-2.85
A24G G25C A39C G58C	≤ -4.2
A24G G25U C32G G46C U101C	≤ -4.2
A24G G34A A73G A107U U134G	≤ -4.2
A24G G34U G83U A91C C99U A107U	≤ -4.2
A24G G42A G67C G80U C93G C114A	≤ -4.2
A24G G46C A47U G59C A91U C123G G140C U146A	≤ -4.2
A24G G50A A106U	≤ -4.2
A24G G59C G67U C96U	≤ -4.2
A24G G81U C93A C103G G112C G141A G143C	≤ -4.2
A24G G83U	-3.03
A24G G84U	≤ -4.2
A24G G84U U148A G152C	≤ -4.2

Variant	polymerase ribozyme fitness (log ratio)
A24G G92A A121U A147G	≤ -4.2
A24G G92U A122G	≤ -4.2
A24G G124U	-4.06
A24G G140A	≤ -4.2
A24G G141C G143C	≤ -4.2
A24G U31G C79A G81A U101G A107G	≤ -4.2
A24G U33G C87U U101G G140C	≤ -4.2
A24G U44A U55G C85A C95U G100A	≤ -4.2
A24G U45A G59C C76G G84C A91G C95A C125A	≤ -4.2
A24G U53A C96G A122G A142C	≤ -4.2
A24G U55A A122C U134A	≤ -4.2
A24G U82C G88U C125G	≤ -4.2
A24G U145A	-3.78
A24U A26C A40G C87U U104C A115C C118A A142C	≤ -4.2
A24U A26C C35G C43U U146G A150U	≤ -4.2
A24U A26U A30C U61A	≤ -4.2
A24U A26U C32G U77G U82A C85A C118U A120U	≤ -4.2
A24U A26U G48C G83A A115U C116U	≤ -4.2
A24U A26U U44C	≤ -4.2
A24U A28G A29U C93G C114U	≤ -4.2
A24U A28G C38G A52G C85U C114U	≤ -4.2

Variant	polymerase ribozyme fitness (log ratio)
A24U A28U G48C U55A U56A A98G C125A	≤ -4.2
A24U A28U G70A G81C C85A C96G G124U	≤ -4.2
A24U A28U U33A A41C U55G C96U	≤ -4.2
A24U A29C A73G G86U A89C G140U A150G	≤ -4.2
A24U A29U C38U C105U G117U	≤ -4.2
A24U A29U C51G G86A A98U G136U	≤ -4.2
A24U A30G A64G C87G A122U C125U C149U	≤ -4.2
A24U A37C A47U A73U G80U C99U U139G	≤ -4.2
A24U A37G C54A C85G C99U A106U G133C U144G	≤ -4.2
A24U A37G C93G U139G	≤ -4.2
A24U A39C A41C A64C G100C C125U G136U	≤ -4.2
A24U A39U A40G C51A G67A C93G	≤ -4.2
A24U A39U C96A C99G U130C C131G	≤ -4.2
A24U A40C U44A C57A A97G C105A U111C A120U C129U C132U	≤ -4.2
A24U A40C U55A A60G C75G C96G U104G	≤ -4.2
A24U A40U U61A U90G A115G A121G G141C	≤ -4.2
A24U A41G A107G	≤ -4.2
A24U A41U G42U C87U C108U	≤ -4.2
A24U A41U G62C G70C C85G G152A	≤ -4.2
A24U A47U C51A G80A C118U C149U	≤ -4.2
A24U A49C C79A G83A U104G A142G	≤ -4.2

Variant	polymerase ribozyme fitness (log ratio)
A24U A49C C85G G86U	≤ -4.2
A24U A49U C51U G70A C85U G112U C114A A122U U146C	≤ -4.2
A24U A52C	-0.457
A24U A52C C87A	≤ -4.2
A24U A52G C79G G94A A107G	≤ -4.2
A24U A52U C118G A142U	-3.54
A24U A60U G84U	-2.22
A24U A64U U104A A122U	≤ -4.2
A24U A91U	≤ -4.2
A24U A97G U151C	≤ -4.2
A24U C27A G83A A89U C114U G143C	≤ -4.2
A24U C27U A29U A52C U55A U111C A120G	≤ -4.2
A24U C27U C51A G92A A113U	≤ -4.2
A24U C32A A47C G59U U90C U101G	≤ -4.2
A24U C32A C54A C76G G83A A107C C114A	≤ -4.2
A24U C32G U55G U78A U104G	≤ -4.2
A24U C35A U55G G65A G70A G84A G136A	≤ -4.2
A24U C35U G42C C93U G136C A142G	-4.03
A24U C36A A49C G50A G86U C93A	≤ -4.2
A24U C36G U44G C63U C75U G84U C93G C118A	≤ -4.2

From the RNAGym collection of RNA variant scans (doi:10.1073/pnas.2313332121)
